Test results reported in a collection of fitness landscapes (doi:10.1126/science.1257360).
The other results are listed elsewhere or left out.

B1: PhoQ; a variant is named by its letters at X, in order, P23837 (parent)
chain: MKKLLRLFFPLSLRVRFLLATAAVVLVLSLAYGMVALIGYSVSFDKTTFRLLRGESNLFYTLAKWENNKLHVELPENIDKQSPTMTLIYDENGQLLWAQRDVPWLMKMIQPDWLKSNGFHEIEADVNDTSLLLSGDHSIQQQLQEVREDDDDAEMTHSVAVNVYPATSRMPKLTIVVVDTIPVELKSSYMVWSWFIYVLSANLLLVIPLLWVAAWWSLRPIEALAKEVRELEEHNRELLNPATTRELTSLVRNLNRLLKSERERYDKYRTTLTDLTHSLKTPLXXLQXXLRSLRSEKMSVSDAEPVMLEQISRISQQIGYYLHRASMRGGTLLSRELHPVAPLLDNLTSALNKVYQRKGVNISLDISPEISFVGEQNDFVEVMGNVLDNACKYCLEFVEISARQTDEHLYIVVEDDGPGIPLSKREVIFDRGQRVDTLRPGQGVGLAVAREITEQYEGKIVAGESMLGGARMEVIFGRQHSAPKDE

Variants of: B1
Test: enrichment ratio after two sorts for PhoP signalling (ratio (wild type AVST 3.29)); higher = more functional
Settings: with PhoP (E. coli)

Variant	enrichment ratio
NLPL	≤ 0.25
THAE	≤ 0.25
YVPP	≤ 0.25
KSCG	1.82
DGVK	≤ 0.25
TPSY	≤ 0.25
IQYC	≤ 0.25
DSPP	≤ 0.25
ETQV	≤ 0.25
WIFE	≤ 0.25
KPVA	≤ 0.25
NEFI	≤ 0.25
FYGD	≤ 0.25
IGVQ	≤ 0.25
RCVD	≤ 0.25
GWCL	≤ 0.25
LKKK	≤ 0.25
IMGN	≤ 0.25
RNNM	≤ 0.25
LICS	≤ 0.25
NSKV	≤ 0.25
GKWA	≤ 0.25
TEDT	3.04
NPYK	≤ 0.25
EDKP	≤ 0.25

Variant	enrichment ratio
RHSE	≤ 0.25
KHHH	≤ 0.25
HCPR	≤ 0.25
MHNR	≤ 0.25
TYFL	≤ 0.25
GHFH	≤ 0.25
IGTW	1.37
TQSN	8.05
TFNH	≤ 0.25
FMCI	≤ 0.25
VCCP	≤ 0.25
LYMF	≤ 0.25
FNEM	≤ 0.25
IQEN	≤ 0.25
YCKF	≤ 0.25
KIIR	≤ 0.25
IFKD	≤ 0.25
YNSQ	≤ 0.25
FKGE	≤ 0.25
KKHC	≤ 0.25
KSNK	≤ 0.25
RNQG	≤ 0.25
QHHI	≤ 0.25
DWFK	≤ 0.25
PCGL	≤ 0.25

Variant	enrichment ratio
QGRN	≤ 0.25
HHRH	≤ 0.25
VSPV	≤ 0.25
VAGM	2.76
KYGE	≤ 0.25
HMYT	≤ 0.25
VMFY	≤ 0.25
KLYE	≤ 0.25
ICDA	≤ 0.25
NPGW	≤ 0.25
RVEM	≤ 0.25
AWRN	≤ 0.25
VEMI	≤ 0.25
QWQV	≤ 0.25
WYFA	≤ 0.25
LLMC	≤ 0.25
HEGE	≤ 0.25
VFIF	≤ 0.25
TVLQ	1.48
RQCM	≤ 0.25
GSKW	≤ 0.25
SYNA	≤ 0.25
RPYM	≤ 0.25
CFKF	≤ 0.25
SWRC	≤ 0.25

Variant	enrichment ratio
FHLK	≤ 0.25
MIYT	≤ 0.25
EPMF	≤ 0.25
LYYC	≤ 0.25
GYIR	≤ 0.25
NCYP	≤ 0.25
VQFR	≤ 0.25
PFNE	≤ 0.25
NMYR	≤ 0.25
VHIM	≤ 0.25
LAQR	≤ 0.25
MIWS	≤ 0.25
RFAW	≤ 0.25
IMAG	≤ 0.25
IYMY	≤ 0.25
LWNA	≤ 0.25
RRPM	≤ 0.25
QNAV	≤ 0.25
GLAS	≤ 0.25
RPPR	≤ 0.25
GFVR	≤ 0.25
RYWA	≤ 0.25
MLAF	5.84
DFRR	≤ 0.25
GWFI	≤ 0.25

Variant	enrichment ratio
RKES	≤ 0.25
LHHL	≤ 0.25
TIRK	≤ 0.25
GIMV	2.38
TISD	≤ 0.25
DGAW	≤ 0.25
TWSK	≤ 0.25
YGQV	≤ 0.25
VDTF	≤ 0.25
FTLR	≤ 0.25
LGGG	≤ 0.25
SWVL	≤ 0.25
LYWW	≤ 0.25
LFQE	≤ 0.25
LFID	≤ 0.25
PFVN	≤ 0.25
FKCH	≤ 0.25
VVDF	≤ 0.25
IAEL	≤ 0.25
VECD	≤ 0.25
ISFG	≤ 0.25
WVPQ	≤ 0.25
GGPT	≤ 0.25
PCEC	≤ 0.25
YLSS	0.34

Variant	enrichment ratio
WMGR	≤ 0.25
RTRK	≤ 0.25
GMKI	≤ 0.25
AAYK	≤ 0.25
ELQE	≤ 0.25
WYHK	≤ 0.25
CSNV	≤ 0.25
LNQD	≤ 0.25
NRFN	≤ 0.25
LRTN	≤ 0.25
VIHA	≤ 0.25
AWTP	≤ 0.25
EICN	≤ 0.25
GLPS	≤ 0.25
FHQL	≤ 0.25
ERIW	≤ 0.25
DSTN	≤ 0.25
KHVK	≤ 0.25
YILQ	0.9
MAMV	10.7
VDNS	≤ 0.25
WDVV	≤ 0.25
QLCR	≤ 0.25
PQRP	≤ 0.25
QILG	≤ 0.25

Variant	enrichment ratio
HKIP	≤ 0.25
VDPG	≤ 0.25
SEDD	≤ 0.25
EHHK	14.4
NNDA	≤ 0.25
DWEM	≤ 0.25
DHFC	≤ 0.25
HTPP	≤ 0.25
NQHV	≤ 0.25
MFAT	≤ 0.25
RKYW	≤ 0.25
ICHN	≤ 0.25
TSIE	≤ 0.25
TVHP	≤ 0.25
SNLL	18.5
AWLS	1.08
TYIY	≤ 0.25
PYMF	≤ 0.25
DTYI	≤ 0.25
QAYS	≤ 0.25
IKGP	≤ 0.25
DTGQ	≤ 0.25
PQPC	≤ 0.25
IFKK	≤ 0.25
AQGY	≤ 0.25

Variant	enrichment ratio
GNWV	≤ 0.25
DSFL	≤ 0.25
PSDI	≤ 0.25
AIPF	≤ 0.25
AKNW	≤ 0.25
EAKN	≤ 0.25
TRPQ	≤ 0.25
WSHK	≤ 0.25
FMFK	≤ 0.25
SEDF	≤ 0.25
MALT	3.1
RMVF	≤ 0.25
ISWH	≤ 0.25
ERSD	≤ 0.25
NKFC	≤ 0.25
VYNM	≤ 0.25
GRAH	≤ 0.25
IFMH	≤ 0.25
ECCL	≤ 0.25
EYGR	≤ 0.25
